# Hit rate of the full screen: of about 410,000 compounds, about 5,000 (1.2%) were called active. The inconclusive results got no clear call from the source; some entries with a clear call stand among them for comparison. The call rests on the fitted dose curve; in most records, active means well fitted inhibition curve with a large enough effect; inconclusive means small, poorly fitted or top-dose-only effect; inactive means no such curve, though single readings can be large or run the other way. A potency beside an inconclusive call is a rough fit, not a confirmed value.
# Assay: qHTS for Inhibitors of TGF-b; further: nearly all actives have a fitted effect of over 65% in size
# Conditions: HepG2 CAGA-GFP TGF-b/SMAD3 reporter, GFP fluorescence, 18 h, TGF-beta stimulated, 500 pg/mL final; series mostly up to 46.1 µM
# In short: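 Read-out: total well GFP (ex488/em500-530) summed from mean per-cell fluorescence. Cells: HEPG2 CAGA-GFP, 1% FBS DMEM, 18 h at 37 degrees C with 500 pg/mL final TGF-beta. Unstimulated wells served as the full-inhibition control; stimulated DMSO wells = 0%.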
# Potency means the concentration at half of the fitted maximal effect; tags describe the fitted curve by direction and shape.
row,SMILES,Potency
1,N#Cc1nc(COc2ccc(Br)cc2)oc1N1CCCC1,inactive
2,CCCOc1ccc(N2C(=O)CC(SC(=N)N3N=C(c4ccccc4)CC3c3ccccc3)C2=O)cc1 (stereo not drawn),"inconclusive: 35.5 µM [inhibitor, partial curve, poor fit]"
3,COc1ccc2cc(CN(Cc3ccco3)Cc3nnnn3C3CCCCC3)c(=O)[nH]c2c1,"inconclusive: 17.8 µM [inhibitor, partial curve, poor fit]"
4,COc1ccc(CNC(=O)c2cccc(S(=O)(=O)N3CCCCC3)c2)cc1OC,"inconclusive: 15.8 µM [inhibitor, partial curve, poor fit]"
5,COc1ccccc1CNC(=O)c1c(O)nc2c(C)cccn2c1=O,"inconclusive: 6.31 µM [inhibitor, single point]"
6,COc1ccccc1NC(=O)CSc1nnc(NC(=O)Nc2ccc(C)cc2)s1,active: 5.62 µM
7,Cc1ccc(S(=O)(=O)N2CCCc3cc(NS(=O)(=O)c4cccc(Cl)c4)ccc32)cc1,active: 10 µM
8,c1ccc(-c2nnc(SCCC3OCCCO3)o2)cc1,inactive
9,COc1cccc(-c2cnc(C(O)c3ccc(C(C)(C)C)cc3)[nH]2)c1 (stereo not drawn),"inconclusive: 12.6 µM [inhibitor, single point]"
10,CCCCN1C(=O)c2[nH]nc(-c3ccccc3O)c2C1c1ccc(OCc2ccccc2)cc1 (stereo not drawn),active: 3.55 µM
11,Cc1ccc2c(/C=C/c3ccc(N(C)C)cc3)ccnc2c1C,"inconclusive: 7.08 µM [inhibitor, full curve, poor fit]"
12,O=C(c1ccco1)N(Cc1cc2ccccc2[nH]c1=O)C1CCCCC1,"inconclusive: 25.1 µM [inhibitor, single point]"
13,Cc1nc2c(OCc3ccc(OC(F)F)cc3)cccn2c1N(C)C(=O)CCC1CCCC1,"inconclusive: 22.4 µM [inhibitor, single point]"
14,O=C(NCCN1CCCC1)c1ccccc1Cl,inactive
15,c1ccc2c(CN3CCOCC3)c3ccccc3c(CN3CCOCC3)c2c1,inactive
16,CN(c1ccc(F)cc1)S(=O)(=O)N1CCCC(C(=O)NCc2cccc(Br)c2)C1 (stereo not drawn),active: 8.91 µM
17,COc1cc(CNc2ccc(N3CCCCC3)cc2)ccc1OCC(=O)NC(C)(C)C,"inconclusive: 20 µM [inhibitor, single point]"
18,Cc1ccccc1Cc1c(C)nc2nc(SCC(=O)N(C)c3ccccc3)nn2c1C,inactive
19,CCCCCCNC(=O)N[C@@H](C(=O)NCCC[C@H]1CN2C(=NC[C@@H]2Cc2ccccc2)N1CCc1cccc(OC)c1)C(C)C,"inconclusive: 14.1 µM [inhibitor, single point]"
20,Oc1ccc(/C=N/n2c(-c3ccco3)csc2=Nc2cccnc2)c(O)c1,"inconclusive: 35.5 µM [inhibitor, single point]"
21,N#Cc1ccc(CSc2nnc(-c3ccccn3)n2-c2ccccc2)cc1,inactive
22,CCN1C(=O)[C@H]2[C@H]3CN=C(SC)N3[C@@](Cc3ccccc3)(C(=O)OC)[C@H]2C1=O,inactive
23,Cc1sc(NC(=O)C2=COCCO2)nc1-c1ccc(Cl)cc1,"inconclusive: 3.98 µM [inhibitor, full curve, poor fit]"

row,SMILES,Potency
1,Cc1cc(F)ccc1-c1cc(C(=O)NCc2ccc(C(F)(F)F)cc2)[nH]n1,"inconclusive: 25.1 µM [inhibitor, single point]"
2,Cc1sc2ncn(CC(=O)Nc3cccc(C(F)(F)F)c3)c(=O)c2c1S(=O)(=O)N1CCN(C)CC1,inactive
3,COC(=O)CNC(=O)C1CCN(S(=O)(=O)c2cccc3nsnc23)CC1,inactive
4,O=C(NCc1ccc(Cl)c(Cl)c1)c1cc(C2CCCCN2C(=O)c2ccccc2)on1 (stereo not drawn),"inconclusive: 22.4 µM [inhibitor, single point]"
5,NS(=O)(=O)c1ccc(-c2c(-c3ccccc3)sc3ccccc23)cc1,"inconclusive: 28.2 µM [inhibitor, single point]"
6,COc1cccc(-c2cnc3c(NC=O)cc(-c4ccccc4Oc4ccccc4)cn23)c1,active: 10 µM
7,O=C(CSc1cccc2cccnc12)Nc1ccc(S(=O)(=O)N2CCOCC2)cc1,"inconclusive: 35.5 µM [inhibitor, single point]"
8,Cn1c(=O)c2c(ncn2Cc2cc(-c3ccccc3)no2)n(C)c1=O,inactive
9,O=C1CCC(=O)N1OCCCOc1ccc(Br)cc1Cl,"inconclusive: 35.5 µM [inhibitor, single point]"
10,COc1cc(NC(=S)Nc2ccc(OC(F)F)cc2)cc(OC)c1,inactive
11,CCOC(=O)c1c(NC(=O)CSc2nc(C)cc(C)c2C#N)sc(C(C)=O)c1C,"inconclusive: 11.2 µM [inhibitor, partial curve, poor fit]"
12,COc1ccccc1-c1noc(-c2ccc(NCc3ccco3)c([N+](=O)[O-])c2)n1,"inconclusive: 0.112 µM [inhibitor, full curve, poor fit]"
13,CCCc1cc(-c2n[nH]c(C)c2-c2ccc(C(=O)OCC)o2)c(O)cc1O,active: 14.1 µM
14,COc1cc(C2c3cc4c(cc3OC(NCc3ccccc3)C2C)OCO4)cc(OC)c1OC (stereo not drawn),active: 2.82 µM
15,CCC/C(=C1/c2ccccc2C(=O)N1c1ccccc1)c1cnc(OC)nc1,active: 12.6 µM
16,CCOc1ccc(C(=O)NC(=S)Nc2cccc(NC(=O)c3ccco3)c2)cc1[N+](=O)[O-],active: 8.91 µM
17,O=C1C2C3C=CC(CC3)C2C(=O)N1c1ccc(F)cc1 (stereo not drawn),"inconclusive: 20 µM [inhibitor, single point]"
18,CCc1ccc(CN2CCC(Oc3cc(C(=O)NC4CC4)ccc3OC)CC2)cc1,inactive
19,O=C(CCCc1nc(-c2ccc(Cl)cc2)no1)N1CCOCC1,inactive
20,COc1ccc(CNc2ncc(-c3ccc(Br)cc3)n2C)cc1OC,"inconclusive: 35.5 µM [inhibitor, single point]"
21,CCC/C=C1/CCCOC(C(=O)NCCNCCO)(C(F)(F)F)C1 (stereo not drawn),"inconclusive: 35.5 µM [inhibitor, single point]"
22,O=C(NCc1ccc2c(c1)OCO2)Nc1cccc(Cl)c1,"inconclusive: 15.8 µM [inhibitor, single point]"
23,O=C(CN1CCCN(S(=O)(=O)c2ccc(Br)cc2)CC1)Nc1cccc(C(F)(F)F)c1,active: 7.94 µM

row,SMILES,Potency
1,C=CCn1c(=N)n(CC(=O)c2cccc([N+](=O)[O-])c2)c2ccccc21,inactive
2,O=C(NCc1ccc(C(F)(F)F)cc1)c1ccc(-c2cccnc2)c2ccoc12,"inconclusive: 22.4 µM [inhibitor, single point]"
3,Cc1ccc(COCC(CC(C)C)N2CCN(C(=O)c3cccc(C(F)(F)F)c3)CCC2=O)cc1 (stereo not drawn),"inconclusive: 15.8 µM [inhibitor, single point]"
4,O=S(=O)(/N=C(/Nc1ccc(F)cc1F)c1ccc(Cl)cc1)c1ccccc1,"inconclusive: 5.62 µM [inhibitor, single point]"
5,CCOC(=O)C1=C(c2ccccc2)OC(N)=C(C#N)C1C1CCCCC1 (stereo not drawn),"inconclusive: 7.08 µM [inhibitor, partial curve, poor fit]"
6,CC(=O)Nc1ccc(N2C(C(C)=O)=NN(c3ccc(Cl)cc3)C2c2sccc2C)cc1 (stereo not drawn),"inconclusive: 35.5 µM [inhibitor, single point]"
7,Cc1cc(C)nc(S/C=C/C(=O)c2ccccc2F)n1,active: 3.55 µM
8,CC(C)Oc1cccc(C(=O)NC(=S)N2CCN(c3ccc(C(F)(F)F)cc3[N+](=O)[O-])CC2)c1,"inconclusive: 5.62 µM [inhibitor, single point]"
9,Cc1cccc(C)c1OC(=O)CSc1nnc(CNC(=O)c2ccccc2)o1,inactive
10,COC(=O)CN1C(=O)CSc2ccc(S(=O)(=O)Nc3ccc(C(C)=O)cc3)cc21,inactive
11,Cc1ccc(NC(=O)CN(c2ccc(Cl)cc2)S(=O)(=O)c2cc([N+](=O)[O-])ccc2Cl)cc1,"inconclusive: 8.91 µM [inhibitor, partial curve, poor fit]"
12,CCN(CC)CCCn1c2c(c(SCC(=O)Nc3nc4ccccc4s3)nc1=O)CCC2,"inconclusive: 7.08 µM [inhibitor, full curve, poor fit]"
13,COc1ccc(/C=N/Nc2cc(N3CCCC3)nc(N3CCCC3)n2)cc1,"inconclusive: 35.5 µM [inhibitor, single point]"
14,COc1ccc(NC(=O)c2cc3n(n2)C(C(F)(F)F)CC(c2ccc4c(c2)OCO4)N3)cc1OC (stereo not drawn),inactive
15,CC1(Cc2cccc(F)c2)C(=O)Nc2ccc(OC(F)(F)F)cc21 (stereo not drawn),"inconclusive: 22.4 µM [inhibitor, single point]"
16,CN(C(=O)CSc1nnc(-c2ccc(F)cc2)c2ccccc12)C1CCS(=O)(=O)C1 (stereo not drawn),"inconclusive: 35.5 µM [inhibitor, single point]"
17,CC1(C)NC(=O)N(CC(O)COc2ccc(-c3ccc(C#N)cc3)cc2)C1=O (stereo not drawn),"inconclusive: 6.31 µM [inhibitor, single point]"
18,C=CCn1c(C)cc(C(=O)CSc2nnc3n(CCC)c(=O)c4ccccc4n23)c1C,inactive
19,CCC(C)(C)C1CCc2[nH]nc(C(=O)NCc3ccc(OC)cc3)c2C1 (stereo not drawn),"inconclusive: 5.62 µM [inhibitor, single point]"
20,CC(C)CCNS(=O)(=O)c1ccc(N2CCCCS2(=O)=O)cc1,"inconclusive: 3.55 µM [inhibitor, partial curve, poor fit]"
21,S=C(NCC1CCCO1)N1CCN(c2nc(-c3ccc(Cl)cc3)cs2)CC1 (stereo not drawn),"inconclusive: 35.5 µM [inhibitor, partial curve, poor fit]"
22,COc1cccc(C(=O)NC(=NCCc2c[nH]c3ccc(OC)cc23)Nc2nc(C)cc(C)n2)c1,inactive

# Reference: PubChem BioAssay AID588855 (National Center for Advancing Translational Sciences (NCATS), 2011)
